Experimental data taken from the antibiotic and cytotoxicity screens of Wong et al. (2023).
The other results are listed elsewhere or left out.

These molecules were tested on S. aureus RN4220 (assay: growth inhibition call (relative growth <= 0.2)). Settings: 50 µM.

Growth inhibition call, inactive:
CC(C)C#Cc1cnc2c(c1)C(=O)N([C@H](C)CO)C[C@@H](C)[C@H](CN(C)S(=O)(=O)c1cn(C)cn1)O2, C[C@@H]1CN([C@H](C)CO)C(=O)c2cccc(NS(=O)(=O)c3ccccc3)c2O[C@@H]1CN(C)Cc1ccncc1, C[C@H]1CN([C@@H](C)CO)C(=O)Cc2cc(NC(=O)CCN3CCOCC3)ccc2O[C@H]1CN(C)CC1CC1, C[C@@H]1CN([C@@H](C)CO)C(=O)c2cc(NC(=O)Cc3cn(C)c4ccccc34)ccc2O[C@H]1CN(C)S(C)(=O)=O, Cc1ccc(O)cc1, CC(=O)Oc1ccc(-c2cc(=O)c3c(OC(C)=O)cc(OC(C)=O)cc3o2)cc1, CC(C)c1cc(N2CC[C@@H](N)C2)nc(N)n1, CNC1(C)C2CCC(C2)C1(C)C.Cl (stereo not given), CCN1C(=O)[C@H]2[C@H](O)CS[C@H]2C1=O, C[C@@H]1CN([C@@H](C)CO)C(=O)c2cc(-c3ccc(C#N)cc3)cnc2O[C@H]1CN(C)C(=O)Nc1ccc(C(F)(F)F)cc1, COc1ccc(S(=O)(=O)N(C)C[C@H]2Oc3ccc(NS(C)(=O)=O)cc3CC(=O)N([C@H](C)CO)C[C@@H]2C)cc1, O=C(NCC[C@H]1CC[C@H](NS(=O)(=O)c2cccc(F)c2)[C@@H](CO)O1)C1CC1, Cn1cnc(S(=O)(=O)N[C@H]2C=C[C@H](CC(=O)Nc3ccccc3)O[C@H]2CO)c1, C[C@@H]1CCCCO[C@H](CN(C)C(=O)NC2CCCCC2)[C@@H](C)CN([C@@H](C)CO)C(=O)c2cc(NC(=O)Nc3ccc(C(F)(F)F)cc3)ccc2O1, O=C(C[C@@H]1CC[C@H](NC(=O)CN2CCOCC2)[C@H](CO)O1)NCc1cccc(F)c1, C[C@@H]1CN([C@H](C)CO)C(=O)c2cccc(NC(=O)c3ccc(-c4nccs4)cc3)c2O[C@H]1CN(C)Cc1ccc2c(c1)OCO2, CC(C)C#Cc1cnc2c(c1)C(=O)N([C@H](C)CO)C[C@@H](C)[C@@H](CN(C)C(=O)c1ccc3c(c1)OCO3)O2, Cc1nc(-c2ccc(OCC(C)C)c(C#N)c2)sc1C(=O)O, O=C(C[C@H]1C[C@@H]2c3cc(NS(=O)(=O)c4ccc(F)cc4)ccc3O[C@@H]2[C@H](CO)O1)NCCN1CCCCC1, C[C@@H]1CCCCO[C@H](CN(C)CC2CC2)[C@H](C)CN([C@@H](C)CO)C(=O)c2cc(NC(=O)C3CCCCC3)ccc2O1, C[C@@H]1CN([C@H](C)CO)C(=O)c2c(c3ccccc3n2C)-c2ccccc2CO[C@@H]1CN(C)C(=O)N[C@H](C)c1ccccc1, C[C@@H]1CCCCO[C@H](CN(C)Cc2ccccc2)[C@@H](C)CN([C@@H](C)CO)C(=O)c2cc(NC(=O)Nc3ccccc3)ccc2O1, O=C(Nc1ccc(-c2nc3ccc(NC(=O)c4ccc(Cl)cc4)cc3[nH]2)cc1)c1ccc(Cl)cc1, COc1ccc(CNC(=O)C[C@H]2CC[C@@H]3[C@@H](COc4ccc(NC(=O)C(C)C)cc4C(=O)N3C)O2)cc1, COc1ccc2c3c([nH]c2c1)[C@H](CO)N(Cc1ccccc1)C[C@]13CCN(CC1)C(=O)Nc1cccc(c1)F, CO[C@@H]1CN(C)C(=O)c2ccc(NC(=O)c3ccc(F)cc3)cc2OC[C@H](C)N(C(=O)CN(C)C)C[C@H]1C, C[C@H](CO)N1C[C@H](C)[C@@H](CN(C)CC2CCCCC2)Oc2c(NS(=O)(=O)c3cn(C)cn3)cccc2C1=O, C[C@H](CO)N1C[C@H](C)[C@@H](CN(C)C(=O)Cc2ccccc2)OCCCC[C@H](C)Oc2ccc(NC(=O)NC3CCCCC3)cc2C1=O, COCC#Cc1cnc2c(c1)C(=O)N([C@@H](C)CO)C[C@@H](C)[C@@H](CN(C)S(=O)(=O)c1ccccc1)O2, C[C@@H]1CN([C@@H](C)CO)C(=O)c2cc(NS(=O)(=O)c3cccs3)ccc2O[C@@H]1CN(C)CC1CC1, C[C@H]1CCCCO[C@H](CN(C)C(=O)Nc2ccc(C(F)(F)F)cc2)[C@@H](C)CN([C@@H](C)CO)C(=O)c2cc(NC(=O)NC3CCCCC3)ccc2O1, C[C@@H]1CN([C@@H](C)CO)C(=O)c2cc(NC(=O)c3ccncc3)ccc2O[C@@H](C)CCCCO[C@@H]1CN(C)C(=O)C1CCCCC1, Cc1ccc(S(=O)(=O)Nc2ccc3c(c2)C(=O)N([C@@H](C)CO)C[C@H](C)[C@H](CN(C)Cc2ccc(Cl)c(Cl)c2)O3)cc1, C[C@@H]1CN([C@H](C)CO)C(=O)c2cc(NC(=O)NC3CCCCC3)ccc2O[C@@H]1CN(C)Cc1ccc(C(=O)Nc2ccccc2N)cc1, C[C@@H]1CN([C@@H](C)CO)C(=O)Cc2cc(NS(=O)(=O)c3ccccc3)ccc2O[C@H]1CN(C)Cc1ccc(C(=O)O)cc1, C[C@H]1CN([C@@H](C)CO)C(=O)c2cc(NC(=O)c3ccncc3)ccc2O[C@@H]1CN(C)S(=O)(=O)c1cccs1, O=C(C[C@H]1CC[C@@H]2[C@H](COC[C@H](O)CN2S(=O)(=O)c2ccccc2)O1)NCCN1CCCC1, Cc1noc(C)c1S(=O)(=O)N(C)C[C@H]1Oc2ccc(NC(=O)CCC(F)(F)F)cc2CC(=O)N([C@H](C)CO)C[C@H]1C, C[C@H](CO)N1C[C@H](C)[C@@H](CN(C)C(=O)Nc2ccc(C(F)(F)F)cc2)OCCCC[C@H](C)Oc2ccc(NC(=O)C3CCCCC3)cc2C1=O, COc1ccc(NC(=O)Nc2ccc3c(c2)C(=O)N([C@H](C)CO)C[C@@H](C)[C@H](CN(C)S(=O)(=O)c2ccc(OC)cc2)OCCCC[C@H](C)O3)cc1
